Measurements from article PMC6212790.
Some of the results follow. At the low end of the ranking the order means little.
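Note: rank score from −0.5 (least bound) to 0.5 (best bound).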

These sequences were tested against T1, GST-Rok (full length) (UniProt O34857) (assay: protein binding microarray). Details: Rok is a gene silencer of Bacillus subtilis; high values mean tight binding; most listed sequences are background and not binding sites; double strand, one strand shown.
T1 sequence: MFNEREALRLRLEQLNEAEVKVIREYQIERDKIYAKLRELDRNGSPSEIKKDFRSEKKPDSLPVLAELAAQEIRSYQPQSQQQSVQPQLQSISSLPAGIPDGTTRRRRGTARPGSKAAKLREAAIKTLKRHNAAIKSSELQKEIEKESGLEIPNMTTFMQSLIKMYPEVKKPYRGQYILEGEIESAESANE
For ACCACAGT, the binding signal was -0.105 E-score.
In the case of GGTGCTAA, the binding signal is reported as -0.18 E-score.
CGCTCACG was tested, and the binding signal was -0.352 E-score.
Work on ACGCCTGG yielded a binding signal of -0.304 E-score.
With AACGAAGG the binding signal was -0.176 E-score.
For AACACACG, the binding signal was -0.0778 E-score.
Sequence TCGGGGAA has a binding signal of -0.206 E-score.
Work on AATCCAGC yielded a binding signal of 0.0124 E-score.
For AGATGAGG, the binding signal was -0.214 E-score.
Sequence ACTCAACT has a binding signal of 0.0434 E-score.
GGAAGCGA showed a binding signal of -0.209 E-score.
For AATTTGCC, the binding signal was 0.0434 E-score.
With GGACCGGA the binding signal was -0.0399 E-score.
GAGCCATA showed a binding signal of 0.0249 E-score.
For GGCAGTAC, the binding signal was -0.0236 E-score.
Work on CGGAAACG yielded a binding signal of -0.261 E-score.
CGAGAGCC showed a binding signal of -0.275 E-score.
CAAACTAC was tested, and the binding signal was 0.43 E-score.
With AGTACCCG the binding signal was -0.0861 E-score.
Work on CTAGCAAC yielded a binding signal of 0.213 E-score.
ACAAGCAG showed a binding signal of 0.0145 E-score.
Sequence AACTCCTG has a binding signal of -0.0126 E-score.
AGCTGCCA showed a binding signal of -0.0914 E-score.
In the case of CTCCCACC, the binding signal is reported as -0.26 E-score.
AGAGATCC was tested, and the binding signal was -0.129 E-score.
Sequence GCCAGTAC has a binding signal of -0.0694 E-score.
Work on AAAGTCAG yielded a binding signal of -0.0785 E-score.
In the case of CGGTTTAA, the binding signal is reported as 0.0328 E-score.
GCCCACAC showed a binding signal of -0.235 E-score.
CTGATTTA gave a binding signal of 0.0978 E-score.
TCCGCAAA showed a binding signal of -0.068 E-score.
CCATTCAG showed a binding signal of -0.0389 E-score.
Sequence AAGGTCCC has a binding signal of -0.396 E-score.
Work on TAGCACAA yielded a binding signal of 0.227 E-score.
Sequence GGTACTGA has a binding signal of 0.0347 E-score.
CTGGTTTC was tested, and the binding signal was -0.0307 E-score.
Work on GTTGTCGA yielded a binding signal of -0.0235 E-score.
With GTCATAAC the binding signal was -0.163 E-score.
Work on CCGATCAG yielded a binding signal of 0.0852 E-score.
Sequence CGCTGTGC has a binding signal of -0.237 E-score.
With AGCCTGGG the binding signal was -0.187 E-score.
TTGGCCAA gave a binding signal of -0.102 E-score.
For GCTTCAAC, the binding signal was 0.127 E-score.
AACAGGGT gave a binding signal of -0.0695 E-score.
Work on CCTTGATA yielded a binding signal of 0.0752 E-score.
For GACGAGCC, the binding signal was -0.315 E-score.
Work on AAGCCAAT yielded a binding signal of 0.0144 E-score.
AGACGTCA was tested, and the binding signal was -0.116 E-score.
Sequence AGTGCCAT has a binding signal of -0.0363 E-score.
GAAAACGA was tested, and the binding signal was -0.0786 E-score.
In the case of ACAAAACT, the binding signal is reported as 0.085 E-score.
Sequence AATCCGTC has a binding signal of 0.0116 E-score.
CTCACCGC gave a binding signal of -0.203 E-score.
ACGCCGAG was tested, and the binding signal was -0.303 E-score.
AGGGTATG gave a binding signal of -0.131 E-score.
With ATCGCGCG the binding signal was 0.192 E-score.
In the case of CCTAAGGA, the binding signal is reported as -0.225 E-score.
With GCGAAGTA the binding signal was 0.155 E-score.
In the case of AAAAATGC, the binding signal is reported as 0.00513 E-score.
CAGATATC was tested, and the binding signal was 0.129 E-score.
With AGCAAATA the binding signal was 0.185 E-score.
Work on AGCGTCGG yielded a binding signal of -0.0913 E-score.
AGACGGGG gave a binding signal of -0.403 E-score.
Sequence AGGATGGA has a binding signal of -0.253 E-score.
Work on CTCAAGAG yielded a binding signal of -0.143 E-score.
Work on ATTGCTCA yielded a binding signal of 0.079 E-score.
Sequence TCGCTGCA has a binding signal of -0.115 E-score.
Work on GGGGAGGA yielded a binding signal of -0.408 E-score.
CCCGCCAA was tested, and the binding signal was -0.27 E-score.
AAAACCTA gave a binding signal of 0.255 E-score.
With ACCCGCCT the binding signal was -0.36 E-score.
CGTACGGA was tested, and the binding signal was -0.12 E-score.
For AGGCTGAG, the binding signal was -0.126 E-score.
CCGATACC was tested, and the binding signal was -0.0548 E-score.
In the case of GACTCCCC, the binding signal is reported as -0.416 E-score.
CCGCGTAC showed a binding signal of -0.0781 E-score.
Sequence CGATTAAC has a binding signal of -0.11 E-score.
GCAAGTCC showed a binding signal of -0.149 E-score.
With GTGTGTTA the binding signal was 0.121 E-score.
CACTGAAA showed a binding signal of -0.128 E-score.
With CGCGCAAC the binding signal was -0.16 E-score.
For CTGCAGGA, the binding signal was -0.3 E-score.
ACCGCACC gave a binding signal of -0.27 E-score.
AATCCGAG showed a binding signal of 0.139 E-score.
CGAGAGAG was tested, and the binding signal was -0.208 E-score.
In the case of ACATCACC, the binding signal is reported as -0.126 E-score.
Sequence ACGACAGC has a binding signal of -0.179 E-score.
Work on ATTAGATG yielded a binding signal of 0.22 E-score.
With ACCACATG the binding signal was 0.0989 E-score.
ACCCGTAC showed a binding signal of -0.0166 E-score.
AAGGTGCG was tested, and the binding signal was -0.306 E-score.
CGGCCGGC was tested, and the binding signal was -0.253 E-score.
For ACCCTTGA, the binding signal was -0.112 E-score.
GATTAGGA gave a binding signal of 0.0758 E-score.
CCGGGGTC showed a binding signal of -0.422 E-score.
ATGCCCTG gave a binding signal of -0.134 E-score.
In the case of CCTCCATC, the binding signal is reported as -0.226 E-score.
ACGCTAAT gave a binding signal of 0.216 E-score.
With GCTAACGA the binding signal was 0.123 E-score.
For GGGAATTA, the binding signal was 0.106 E-score.
AAATAGGA showed a binding signal of 0.12 E-score.
ATGGCAAG was tested, and the binding signal was 0.0231 E-score.
Work on GACTCGTA yielded a binding signal of -0.0752 E-score.
ACAGTTTA gave a binding signal of 0.102 E-score.
GTGCGGAA showed a binding signal of -0.0982 E-score.
TCACACGA was tested, and the binding signal was -0.0132 E-score.
Sequence TACTAACA has a binding signal of 0.272 E-score.
AGCATCCG showed a binding signal of -0.148 E-score.
Sequence ATGGGTGG has a binding signal of -0.0108 E-score.
Work on CGCTTGGC yielded a binding signal of -0.223 E-score.
ATTGCACG gave a binding signal of 0.0595 E-score.
For CCTCGCAC, the binding signal was -0.252 E-score.
Sequence CTAATACC has a binding signal of 0.179 E-score.
In the case of AAAAAAGC, the binding signal is reported as -0.0757 E-score.
Sequence AGCCAAAC has a binding signal of 0.0694 E-score.
With CAATACTG the binding signal was -0.0136 E-score.
Work on ATATAACA yielded a binding signal of 0.22 E-score.
For GAACTGAC, the binding signal was -0.0175 E-score.
With CAACCCCC the binding signal was -0.447 E-score.
For AGGGGGGG, the binding signal was -0.437 E-score.
AGTCCCAC gave a binding signal of 0.0311 E-score.
AACAGTGC showed a binding signal of -0.0608 E-score.
ATCCCGCC gave a binding signal of -0.114 E-score.
In the case of AAGTAATG, the binding signal is reported as 0.118 E-score.
In the case of ACAGCGTC, the binding signal is reported as -0.21 E-score.
Sequence CACAAACG has a binding signal of 0.0573 E-score.
Sequence CTGAGACA has a binding signal of -0.149 E-score.
Sequence ATAGGTAC has a binding signal of 0.219 E-score.
In the case of CCGCAACG, the binding signal is reported as -0.17 E-score.
AGGCGCAG was tested, and the binding signal was -0.161 E-score.
CTAACACA showed a binding signal of -0.123 E-score.
AACGTCAG showed a binding signal of -0.236 E-score.
Work on CGAAAACG yielded a binding signal of -0.18 E-score.
CCGAAGCA gave a binding signal of -0.0409 E-score.
In the case of CGTTGGAG, the binding signal is reported as -0.198 E-score.
ATCTAGCA showed a binding signal of 0.339 E-score.
In the case of CAGGTACG, the binding signal is reported as 0.00491 E-score.
With ACGAGAGA the binding signal was -0.0139 E-score.
For CTATCTAA, the binding signal was 0.264 E-score.
Sequence AGGGCTAG has a binding signal of -0.123 E-score.
Sequence ACCGCGAT has a binding signal of 0.159 E-score.
For CACTGTGG, the binding signal was -0.125 E-score.
For GAGCCCTC, the binding signal was -0.37 E-score.
Work on AATCGGCG yielded a binding signal of -0.0837 E-score.
Work on GCAGTTTA yielded a binding signal of 0.0849 E-score.
CGGTTTGA showed a binding signal of 0.0298 E-score.
In the case of CCATTCAC, the binding signal is reported as 0.048 E-score.
ACATATCG was tested, and the binding signal was 0.262 E-score.
ATCTTTGG gave a binding signal of -0.0492 E-score.
CCTAAGAG gave a binding signal of -0.0999 E-score.
AGCGTGGG was tested, and the binding signal was -0.179 E-score.
Sequence CCAAAACG has a binding signal of -0.128 E-score.
Sequence GTACGCTA has a binding signal of 0.252 E-score.
AGTCAACG gave a binding signal of -0.0694 E-score.
With ACCTTTCT the binding signal was 0.114 E-score.
ATCCATTG gave a binding signal of 0.0941 E-score.
AGATTCTG was tested, and the binding signal was 0.114 E-score.
For ATTTTCCC, the binding signal was -0.0469 E-score.
AATGCACC gave a binding signal of -0.123 E-score.
Work on CGAAATGC yielded a binding signal of -0.0235 E-score.
For AAGGAACT, the binding signal was -0.0194 E-score.
Work on CAACAAGA yielded a binding signal of -0.0944 E-score.
AACGCGAG was tested, and the binding signal was -0.0399 E-score.
In the case of ATAGGTAA, the binding signal is reported as 0.223 E-score.
Work on CACCGCCG yielded a binding signal of -0.143 E-score.
CTAGGAGC was tested, and the binding signal was 0.135 E-score.
GTTAGGGA showed a binding signal of -0.122 E-score.
Work on ATTGCGCA yielded a binding signal of -0.0992 E-score.
In the case of AAGTAGTA, the binding signal is reported as 0.332 E-score.
ACCGCGGG was tested, and the binding signal was -0.291 E-score.
For CATGACAG, the binding signal was -0.0742 E-score.
CAGGACTA was tested, and the binding signal was -0.0553 E-score.
